In PMC4336329 (PLoS ONE, 2015):
Out of some 310,000 compounds screened, about 2,200 (0.71%) showed an effect of 50% or more. The effect is printed as a negative number. The list shows a part of the results.

These molecules were tested against human ether-à-go-go-related gene (hERG) potassium channel (human, UniProt Q12809) (assay: primary screen, population patch clamp on CHO cells stably expressing hERG).
Sequence of human ether-à-go-go-related gene (hERG) potassium channel (Q12809 whole entry, looked up): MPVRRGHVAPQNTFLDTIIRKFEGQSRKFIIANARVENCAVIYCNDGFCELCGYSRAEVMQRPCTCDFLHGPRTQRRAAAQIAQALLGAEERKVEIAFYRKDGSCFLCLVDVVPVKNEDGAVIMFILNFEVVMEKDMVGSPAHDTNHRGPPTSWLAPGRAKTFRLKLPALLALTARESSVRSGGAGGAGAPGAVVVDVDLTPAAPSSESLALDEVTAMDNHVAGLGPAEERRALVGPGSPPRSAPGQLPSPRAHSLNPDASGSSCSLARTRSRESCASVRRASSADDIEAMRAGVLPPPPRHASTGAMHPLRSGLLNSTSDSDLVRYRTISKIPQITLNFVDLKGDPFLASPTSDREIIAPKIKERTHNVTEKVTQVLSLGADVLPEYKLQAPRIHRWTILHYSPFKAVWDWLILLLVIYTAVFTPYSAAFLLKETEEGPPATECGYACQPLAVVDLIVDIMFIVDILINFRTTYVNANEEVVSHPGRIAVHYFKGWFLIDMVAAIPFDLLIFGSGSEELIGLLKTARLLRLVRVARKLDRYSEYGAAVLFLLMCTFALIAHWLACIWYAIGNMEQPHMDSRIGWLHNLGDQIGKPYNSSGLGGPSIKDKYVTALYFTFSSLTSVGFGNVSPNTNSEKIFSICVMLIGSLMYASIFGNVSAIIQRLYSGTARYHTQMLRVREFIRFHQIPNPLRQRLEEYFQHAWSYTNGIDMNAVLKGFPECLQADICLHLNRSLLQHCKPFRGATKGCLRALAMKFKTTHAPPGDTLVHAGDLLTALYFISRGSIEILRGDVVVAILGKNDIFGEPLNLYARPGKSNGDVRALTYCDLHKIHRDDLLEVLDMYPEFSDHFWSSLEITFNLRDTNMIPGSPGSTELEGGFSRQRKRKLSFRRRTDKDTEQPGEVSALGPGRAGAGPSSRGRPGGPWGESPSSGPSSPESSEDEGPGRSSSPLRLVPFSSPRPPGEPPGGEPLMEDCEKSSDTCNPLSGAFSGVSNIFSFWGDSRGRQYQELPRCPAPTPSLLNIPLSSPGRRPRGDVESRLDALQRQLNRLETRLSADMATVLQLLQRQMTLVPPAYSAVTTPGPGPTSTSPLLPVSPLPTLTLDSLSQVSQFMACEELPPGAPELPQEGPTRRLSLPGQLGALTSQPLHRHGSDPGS

Row | Compound | hERG current change (%, negative = inhibition) at 1uM [%]
1 | CCN(CC(=O)Nc1c(F)cccc1F)C(=O)CCSc1ccc(F)cc1 | 13.7
2 | Cn1c(Oc2ccccc2NCc2cccc(Br)c2)cc(=O)n(C)c1=O | 6.2
3 | C=C/C(C)=C/CC1C(=C)CCC2C(C)(C(=O)O)CCCC12C (stereo not shown) | 11
4 | CC(C)c1nnc(NC(=O)CCC(=O)Nc2ccc3cn[nH]c3c2)s1 | 10.6
5 | CCCCNC(=O)NC(C(N)=O)P(=O)(OCC)OCC (stereo not shown) | 10.6
6 | COC(=O)c1ccccc1Oc1c(F)c(F)nc(N2CCOCC2)c1F | -1.26
7 | COC(=O)C1=C(c2ccc3ccccc3c2)C[C@@H]2CC[C@H]1N2C | 11.5
8 | Cc1cccn2c(=O)nc(SCC(=O)Nc3cccc4ccccc34)nc12 | 1.58
9 | COc1ccc(C(C(=O)NC2CCCCC2)N(Cc2cccs2)C(=O)Cc2c[nH]c3ccccc23)cc1OC (stereo not shown) | -12.4
10 | COC(=O)c1ccc(CSc2nc3ccc(S(N)(=O)=O)cc3[nH]2)cc1 | 11.6
11 | COc1ccc(F)c(CN2CCC(n3nccc3NC(=O)CCCc3ccccc3)CC2)c1 | -36.3
12 | c1ccc(-n2c(Sc3cnccn3)nnc2-c2cccs2)cc1 | -13.3
13 | CSC(=NNC(=O)c1ccccc1O)SC | -5.89
14 | CCOC(=O)c1c(CC(C)C)csc1NC(=O)CCl | 6.26
15 | Cn1c(=O)n(Cc2ccco2)c(=N)c2c3c(sc21)CCC3 | -29.3
16 | Cc1nn(-c2ccccc2)c2sc(C(=O)NNC(=O)COc3ccccc3)cc12 | 6
17 | OCC[C@@H]1C[C@@H](O)[C@H](O)[C@]2(CCCO2)O1 | -0.555
18 | COc1ccc(S(=O)(=O)N(C)CC(=O)NCc2cccnc2)cc1 | 0.722
19 | CCc1[nH]nc2c1C(c1ccsc1)C(C#N)=C(N)O2 (stereo not shown) | 12.5
20 | O=C(NCc1ccc2c(c1)OCO2)C1CCN(S(=O)(=O)c2cccc3nsnc23)CC1 | 11.8

Row | Compound | hERG current change (%, negative = inhibition) at 1uM [%]
21 | COc1ccc([N+](=O)[O-])cc1NC(=O)C(C)Sc1nc(C)c(C)c(C)n1 (stereo not shown) | 10.2
22 | O=C(Cn1cc(C(F)(F)F)cc(Cl)c1=O)NCCc1ccc(Cl)cc1Cl | 6.7
23 | COc1cccc(C2=NOC(C(=O)Nc3c(C)n(C)n(-c4ccccc4)c3=O)C2)c1 (stereo not shown) | 6.58
24 | Cc1c(NC(=O)C(C)OC(=O)CCOc2ccccc2)c(=O)n(-c2ccccc2)n1C (stereo not shown) | 17.3
25 | Cc1ccc(/C=C/C(=O)c2nc3ccccc3[nH]2)cc1 | 4.5
26 | COc1cccc(C(=O)/C(C#N)=N/Nc2cccc(-c3ccnc(C)n3)c2)c1 | 3.97
27 | Cc1c(C)c2ccc(OCC(=O)NCCN3CCOCC3)c(C)c2oc1=O | 8.66
28 | CCCn1c(=O)c2ccccc2n2c(SCC(=O)c3ccccc3)nnc12 | -2.83
29 | O=C1OC(Nc2ccccn2)c2ccccc21 (stereo not shown) | -7.6
30 | O=C(/C=N\O)NCCCNCc1ccccc1 | -2.55
31 | CC1(C)CC(=O)C(c2c[nH]c3ccccc23)C(=O)C1 | 13.5
32 | CC(C)CCSc1nc(N2CCOCC2)c2c(c1C#N)CC(C)(C)OC2 | 5.79
33 | CCOC(=O)CNC(=S)N(Cc1cccs1)C1CCCC1 | 13.7
34 | O=C(Cn1ccc(NC(=O)OCc2ccccc2)nc1=O)NCc1ccccn1 | -6.25
35 | COc1cccc(N(C(=O)c2cnccn2)C(C(=O)NC2CCCCC2)c2ccc(Cl)cc2)c1 (stereo not shown) | 7.27
36 | NC(=O)c1ccc(-n2nnnc2Oc2ccc(Br)cc2)cc1 | 9.36
37 | CCN(C(=O)Cc1nc(N)n[nH]1)C1(C(=O)Nc2ccccc2)CCCCC1 | 9.75
38 | CCc1nc(N2CCN(S(C)(=O)=O)CC2)c2c3c(sc2n1)CCCC3 | 8.37
39 | O=C(SCC(O)C(O)CS)c1cccs1 (stereo not shown) | 1.67
40 | CNc1oc(C)nc1S(=O)(=O)c1ccccc1 | 10.4

Row | Compound | hERG current change (%, negative = inhibition) at 1uM [%]
41 | CCOC(=O)N1CCN(C(=S)Nc2ccc3nc(N4CCN(CC)CC4)cc(C)c3c2)CC1 | 2.94
42 | Clc1cccc(OCCCCN2CCCCC2)c1 | -4.66
43 | CC(=O)Nc1cccc(NC(=O)CSc2ncc(C(=O)Nc3ccc(F)cc3)c(=O)n2C)c1 | -3.89
44 | CCOC1(OCC)N=C(N)C2(C#N)C(c3cccc(OC)c3OC)C12C#N (stereo not shown) | 3.32
45 | CCn1c(=O)n(CC)c2cc(N3CCCC3)c(NC(=O)c3ccc(C)c([N+](=O)[O-])c3)cc21 | 10.6
46 | O=C(Oc1c(CN2CCOCC2)cc(Cl)c2cccnc12)c1ccccc1Br | 9.55
47 | COc1ccc(-c2noc(CCC(=O)N3CCC(C)CC3)n2)cc1 | -3.61
48 | CCN(CC)CCNC(=S)N1CCn2c(nc3ccccc32)C1 | -5.56
49 | Cc1ccc(CC(=O)NC2CCSC2=O)cc1 (stereo not shown) | 16.9
50 | CCNC(=S)N1CCN(c2nc(CC)nc3sc4c(c23)CCCC4)CC1 | -1.92
51 | O=C1CCC(C(=O)N2CCCCO2)CN1Cc1cccc(C(F)(F)F)c1 (stereo not shown) | -6.21
52 | O=C(CCC1CCCC1)NCc1cccs1 | 20.7
53 | COc1ccc(OCc2nnc(SCC(=O)c3c(N)n(C)c(=O)n(C)c3=O)n2-c2ccccc2F)cc1 | 18.6
54 | COc1cc(NC(=O)CC(C)C)ccc1NC(=O)c1ccco1 | 8.43
55 | O=C(NC(=S)NC1CCSC1=O)c1ccccc1 (stereo not shown) | 13.2
56 | CCN(CC)C(=O)Cn1c(=O)n(-c2ccccc2)c(=O)c2c3c(sc21)CCC3 | 19
57 | NC(=O)c1ccc(Nc2ccc3c(c2)CCC3)c([N+](=O)[O-])c1 | 9.4
58 | Cc1cccc(C)c1NC(=O)C1=C(O)c2ccccc2N(C)S1(=O)=O | 15.7
